Test results from the supplement of paper PMC3334620.
The full ranking holds about 33,000 sequences; the median of “E-score (-0.5 to 0.5)” is about -0.013, and the highest 2% start at about 0.3. The list shows a part of the results.

molecular target: T1, Msn1 (UniProt P22148); assay: PBM E-score (8-mer binding enrichment) (E-score (-0.5 to 0.5)); higher = stronger / more preferred TF binding; most listed sequences are background and not binding sites; conditions: protein concentration: 200 nM; construct: GST-full length
T1 sequence: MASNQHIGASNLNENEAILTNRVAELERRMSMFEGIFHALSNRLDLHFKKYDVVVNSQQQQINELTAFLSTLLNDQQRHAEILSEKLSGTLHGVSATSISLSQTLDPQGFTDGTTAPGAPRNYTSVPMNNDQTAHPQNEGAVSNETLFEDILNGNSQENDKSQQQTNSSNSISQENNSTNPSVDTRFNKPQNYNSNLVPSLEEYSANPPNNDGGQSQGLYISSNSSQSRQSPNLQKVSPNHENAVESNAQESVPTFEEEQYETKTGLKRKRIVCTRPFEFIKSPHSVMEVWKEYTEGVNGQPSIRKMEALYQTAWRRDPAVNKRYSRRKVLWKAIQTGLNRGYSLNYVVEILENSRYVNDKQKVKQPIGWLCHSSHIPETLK
Procedure: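 Universal 'all 10-mer' protein binding microarrays (Agilent AMADID 015681) probed with GST-tagged S. cerevisiae TFs (full-length or DBD) made by in vitro transcription/translation (PURExpress), about 100-200 nM. Bound TF was detected with fluorescent anti-GST. Each ungapped 8-mer (which stands for itself and its reverse complement) is scored by the PBM enrichment score (E-score), a modified Wilcoxon-Mann-Whitney statistic from -0.5 to +0.5, computed with the Universal PBM Analysis Suite. Scale: above 0.35 generally sequence-specific binding.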

In order of falling “PBM E-score” value:
1. TGGTACAA  0.386
2. GTCCGAGA  0.326
3. ATATTCCG  0.321
4. GTCCGAAA  0.312
5. AGTGTGTC  0.256
6. CCTATGTC  0.254
7. ACGACAAT  0.24
8. CAAATAAA  0.224
9. AAGACAGA  0.216
10. CATGAACA  0.21
11. AAGAACAT  0.198
12. CGAACAAG  0.184
13. ACACAACT  0.181
14. TATATAGA  0.177
15. CGGTAACA  0.17
16. ACAGAAAT  0.169
17. CGCAAGGA  0.167
18. AAAACGAA  0.167
19. ATTTGTAG  0.162
20. CAGAAAAG  0.159
21. ATGTTACC  0.157
22. GCTGCGAC  0.155
23. AAAACGTT  0.154
24. AAACATTT  0.151
25. AATAACAG  0.151
26. GTGGACTA  0.144
27. ACCACTAA  0.143
28. AACCGCGG  0.141
29. CTTAAGGA  0.14
30. GTTCGAAC  0.14
31. AGCTCATA  0.113
32. ATACGACG  0.111
33. CGTGACCA  0.108
34. ATCGAAAG  0.106
35. ATCTCAGG  0.106
36. GCAAGTTA  0.103
37. CAAAGTTG  0.101
38. AACTGTTC  0.0994
39. CGAATTTA  0.0939
40. AAGTTAGC  0.0899
41. ACTCATCT  0.0848
42. CCCTGGAC  0.0807
43. ATGATTTG  0.0798
44. CCACACTA  0.0776
45. GCAATGTA  0.0757
46. CATTGGCA  0.0733
47. AATTCTCC  0.071
48. CTTTATGC  0.0705
49. GCATGATA  0.0628
50. GATACCCC  0.0625
51. ACAGACGT  0.0589
52. AGGCCGCG  0.0587
53. AATAGTCG  0.0523
54. TTGTAAAA  0.0512
55. AAGTCGAT  0.0478
56. AGTCTTGG  0.0468
57. TTCGTAAA  0.0452
58. ATATTCGC  0.0417
59. CATTGATA  0.0395
60. CCGCACGA  0.0364
61. GTGATCAA  0.0353
62. CAATTCGG  0.0346
63. CACATATA  0.0314
64. CAATAGTC  0.0311
65. CCTACAAC  0.0278
66. ACCTCGCT  0.0267
67. TATTATGA  0.0243
68. CGGCTAGC  0.024
69. CACTTTGA  0.0229
70. CTGTAGGA  0.0213
71. GAAATCGC  0.0209
72. AAGGTATT  0.0165
73. AGTATGAG  0.0158
74. GATAGAGA  0.0141
75. GCGTTAAC  0.0136
76. TCATGCAA  0.0129
77. AGTCGAAG  0.00794
78. CATGTTAG  0.00794
79. GCCTATTA  0.00604
80. CAACGTAG  0.00588
81. ACATCGAG  0.00509
82. ATTAGAGA  0.00489
83. TCCCCGCA  0.00418
84. AGCCGGCA  0.00158
85. CTGGAGAA  0.00098
86. CACATCGA  -0.00084
87. GCCACACC  -0.0027
88. GAACGGAA  -0.00404
89. CACGACAG  -0.0053
90. GGTTTGAA  -0.00539
91. CCCATGAC  -0.00547
92. CTGAATAC  -0.00926
93. ATTCGCAC  -0.0102
94. ACACCCGT  -0.0118
95. AATGGTTG  -0.0125
96. ATTGGATC  -0.0161
97. ACGTGGCG  -0.0185
98. AGCATTGA  -0.022
99. AGCGATAC  -0.0221
100. ACCGGATA  -0.0231
101. GGTGCACA  -0.0287
102. CGGATGCC  -0.0295
103. ACCGGAAT  -0.03
104. CTACGGGA  -0.0335
105. ACTAATCC  -0.0352
106. ACGCGTGC  -0.0356
107. TAGGCATA  -0.0387
108. CCGTTAGA  -0.0404
109. TCGAAGAA  -0.0428
110. AATATTGG  -0.0454
111. CCCAGTAA  -0.047
112. CGCGGAGC  -0.0474
113. ACGCGCCT  -0.0484
114. CCTATTTA  -0.0516
115. AAGGGGAT  -0.0523
116. GCAGACGA  -0.0528
117. CGTTAGAC  -0.0528
118. AGAGCGAT  -0.0544
119. ACCAAAGC  -0.0563
120. TGAAGTCA  -0.0584
121. GCACGTCA  -0.0594
122. ACCGCACT  -0.0595
123. GTGCGGGA  -0.0606
124. CAGATAGG  -0.0621
125. AGGGTGGG  -0.0627
126. TGTGCACA  -0.065
127. AAGCACTT  -0.0667
128. CCCGTTGC  -0.0761
129. AATCCAGC  -0.0771
130. CAAACTCG  -0.0776
131. ATCACGTA  -0.078
132. GGCAGGCA  -0.0842
133. AGGAACCC  -0.0872
134. CTAATGAG  -0.0943
135. ACGCGCAG  -0.098
136. ATACCCGC  -0.103
137. CAAATGAG  -0.106
138. AGCCAACA  -0.114
139. AAGAGGCG  -0.118
140. AGTGCGCG  -0.124
141. ACCTGTAA  -0.124
142. AAGGTGGT  -0.131
143. CTGAGTTA  -0.135
144. CATAGTGC  -0.136
145. CAACAGGA  -0.138
146. GGCCAAAC  -0.141
147. ATGCTCTC  -0.153
148. GCCCGTGA  -0.158
149. AAGCGCCT  -0.16
150. CCTAGATA  -0.167
151. AAGCGGTG  -0.174
152. AGGTGCGG  -0.191
153. AGGCTCAT  -0.194
154. ATAGCACG  -0.198
155. CCAGTCAG  -0.209
156. GCCTGCCC  -0.224
157. AGCCCGTC  -0.231
158. GCCTAGCC  -0.234
159. AAATCTCC  -0.234
160. GCGAGCCC  -0.236
161. AGCCCCAA  -0.253
162. AACTCACT  -0.275
163. CCTCAAGC  -0.277
164. AGAGCCAC  -0.28
165. GCCACCCC  -0.283
166. GAGGGCCC  -0.296
167. GCATTGGC  -0.303
168. GGGCTATA  -0.313
169. AGGGAGCA  -0.347
170. ACCCCTGC  -0.378
171. CCCCCTAG  -0.398
172. CGGGAGGC  -0.43
